Measured values reported in paper PMC12040169 (PLOS Biology, 2025).
The other results are listed elsewhere or left out.

test system: T1, C. trachomatis L2/434/Bu expressing GFP (CTL2-GFP); set-up: species or system HeLa; C. trachomatis total inclusion area by high-content imaging, normalised to DMSO; conditions: total inclusion area; 28.5 h, 10 µM; inhibitor
T1 construct: L2/434/Bu GFP intracellular growth in HeLa cells
Outline: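 Imaging read-out: GFP inclusions and Hoechst nuclei captured by high-content imaging after fixation. Inclusion area/number = chlamydial growth; nuclei count = host cell viability. MIC calculated per earlier method.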

Row | Compound | % of control remaining
1 | O=C1NC(=O)C(CCCCN2CCCC3(CCN(C(=O)Cc4c[nH]c5ccccc45)C3)C2)N1 (centres unmarked) [CBK132059] | 105.752
2 | COc1ccc(C)cc1NC(=O)Nc1nc(C)cs1 [CBK006565] | 98.4461
3 | CC(=O)Nc1ccc(S(=O)(=O)c2cc(O)ccc2O)cc1 [CBK261372] | 98.3427
4 | CCNC(=O)c1cc2c(=O)n3ccccc3nc2n1C [CBK287556] | 103.648
5 | Cn1cccc1C(=O)Nc1cc2ccccc2c(N2CCNCC2)n1 [CBK036347T] | 109.638
6 | Cc1cnc(C(=O)N2CCC3(CC2)CC(=O)c2cc(Cl)cc(Cl)c2O3)cn1 [CBK156502] | 91.2661
7 | Clc1ccc(CN2CCC(Oc3cncc(OCC4COc5ccccc5O4)n3)C2)cc1 (centres unmarked) [CBK084364] | 89.6135
8 | Fc1ccc(C(c2nnnn2C2CCCCC2)N2CCCCC2)cc1 (centres unmarked) [CBK141670] | 3.998
9 | CC(C)c1ccc(NS(=O)(=O)c2csc3ccnc(N4CCNCC4)c23)cc1 [CBK042343C] | 54.5985
10 | CCc1ccc(C(O)CNC2CCN(CC(F)F)CC2)cc1 (centres unmarked) [CBK304144] | 24.5904
11 | Cc1ccc(NC(=O)c2cnc(SCc3ccc(F)cc3)n(C)c2=O)cc1C [CBK287674] | 72.7394
12 | CC(C)CNc1ncc(-c2ccc(N3CCOCC3)cc2)n2ccnc12 [CBK091273] | 90.8756
13 | COc1cccc(-c2ccc(C(=O)Nc3ccc4c(c3)OCO4)c(N3CCOCC3)n2)c1 [CBK076509] | 107.176
14 | CCn1ncc(S(=O)(=O)Nc2ccc3c(c2)cc(C)n3C)c1C [CBK282761] | 73.7913
15 | O=C1NC2(CCCCC2)C(=O)N1CCS(=O)(=O)Oc1ccc(Br)cc1 [CBK261303] | 97.9596
16 | c1ccc(CCNc2nc(-c3ccc(N4CCOCC4)cc3)cn3ccnc23)nc1 [CBK037271] | 131.632
17 | O=C(NC1CC1)[C@H]1O[C@H](CCN2CCN(c3ccccc3)CC2)CC[C@@H]1O [CBK288717] | 100.912
18 | O=C(O)c1cc(/C=C/c2ccc(Br)cc2)nc2ccccc12 [CBK299805] | 84.6925
19 | COc1ccc(C(NC(=O)C2CC=CCC2C(=O)O)c2ccccc2)cc1 (centres unmarked) [CBK264264] | 99.0498
20 | CC1=C[C@@H](CNC(=O)c2cccnc2)[C@H](C(C)C)C[C@H]1CC(=O)N1CCOCC1 [CBK289053] | 110.868
21 | O=C(CCN1CCn2nc(C(O)C3CC3)cc2C1)NCc1cccs1 (centres unmarked) [CBK306603] | 27.3041
22 | O=S(=O)(CCN1CCC(Cc2ccccc2)CC1)c1ccccc1 [CBK126386] | 103.329
23 | O=C(O)CCSCC(=O)c1ccc(NS(=O)(=O)c2ccccc2)cc1 [CBK300504] | 90.0975
24 | c1ccc2c(c1)n[n+]1c3ccccc3[n-]n21 [CBK260974] | 106.145
25 | CN(C)CCN(Cc1nc2ccccc2[nH]1)Cc1cccs1 [CBK283020] | 118.913
26 | Cc1c(S(=O)(=O)Nc2nnn[nH]2)sc2ccc(Cl)cc12 [CBK062392] | 98.5727

Row | Compound | % of control remaining
27 | CN1CCN(c2ccc(C(=O)N3CCC(F)CC3)cc2)CC1 [CBK200265] | 100.209
28 | CCCC[C@H]1CC[C@H](C(=O)Oc2ccc(OC(C)C(=O)O)cc2)CC1 (some centres unmarked) [CBK160854] | 100.96
29 | CC(OC(=O)c1ccc2nccnc2c1)c1cccc([N+](=O)[O-])c1 (centres unmarked) [CBK297901] | 78.3678
30 | COc1ccc(SC(C)C(=O)N2CCN(c3ccc([N+](=O)[O-])nc3)CC2)cc1 (centres unmarked) [CBK298282] | 113.659
31 | O=C(O)c1cccc2c1C(=O)N(Cc1ccncc1)C2 [CBK291146] | 117.77
32 | Cc1cccc(CN2CCC(NC(=O)Cn3ccccc3=O)CC2)c1 [CBK305667] | 36.1599
33 | CC(=O)Nc1ccc(CN2Cc3nc[nH]c3C[C@H]2c2nc(-c3ccc(F)cc3)no2)cc1 [CBK288956] | 98.5565
34 | CN(C)CCN(C)c1cc(-c2cccc(C(=O)O)c2)nc2ccnn12 [CBK037206] | 86.6374
35 | CC(NC(=O)C1CCN(Cc2ccc(Oc3ccccc3)cc2)CC1)c1ccccc1 (centres unmarked) [CBK148618] | 74.112
36 | CC(=O)c1ccc(-c2nc(NC(=O)CC3OC(=O)c4ccccc43)cnc2-c2cccc(C)c2)s1 (centres unmarked) [CBK037152] | 121.017
37 | CC(C)(CNC(=O)Cn1cccc(C(=O)Nc2ccc(F)cc2)c1=O)c1ccccc1F [CBK286067] | 99.0443
38 | CC(C)(CO)CNc1cncc(-c2ccc(O)cc2)n1 [CBK065386] | 117.451
39 | FC(F)(F)Oc1ccc(-n2cc(-c3ccsc3)nn2)cc1 [CBK113096] | 107.987
40 | Cn1cc(CCCCNC(=O)Cc2c[nH]c3ccc(Cl)cc23)cn1 [CBK306364] | 71.4094
41 | O=C1[C@@H]2CCCN2C(=O)c2ccccc2N1CCN1CCCC1 [CBK282857] | 89.5825
42 | CCNC(=O)N1CC2(CCN(CC3COc4ccccc4O3)CC2)c2ccccc21 (centres unmarked) [CBK143944] | 100.917
43 | CCN1CCN(C(=O)CN(C)S(=O)(=O)c2ccc(Cl)cc2)CC1 [CBK267218] | 59.5255
44 | O=c1[nH]c(=O)c2cc(S(=O)(=O)NCc3ccccc3CN3CCCC3)ccc2[nH]1 [CBK286395] | 80.6308
45 | O=C(CSc1nnc(-c2ccc(F)cc2)n1-c1ccccc1)Nc1cccc2ccccc12 [CBK267592] | 86.1902
46 | COc1ccc(C(=O)Nc2cc(C)c3c(=O)oc4ccccc4c3n2)c(OC)c1 [CBK291231] | 116.023
47 | COC(=O)Nc1ccc2c(c1)N(C(=O)CCN1CCOCC1)c1ccccc1CC2 [CBK261284C] | 95.8109
48 | C=CCn1c(SCC(=O)Nc2ccnc3ccccc23)nnc1-c1cccnc1 [CBK268723] | 81.3561
49 | Cc1cc(=O)n2ccc(CN3CCOCC3)c(O)c2n1 [CBK262899C] | 91.9188
50 | Cc1nc2c(C(=O)NCC3CCCO3)cnn2c(C)c1Cc1cccnc1 (centres unmarked) [CBK162160] | 45.9935
51 | CCN(CC)c1ccc(C(=O)Cn2c(=O)n(C(=O)c3cccc(S(C)(=O)=O)c3)c3ccccc32)cc1 [CBK106500] | 64.4532
52 | CCn1c(C2CCN(C(=O)c3cc(C(F)(F)F)n[nH]3)CC2)nn(C)c1=O [CBK307184] | 62.4979

Row | Compound | % of control remaining
53 | CCCOc1ccc(-c2cn(CC(=O)NN)cn2)cc1 [CBK261790] | 108.45
54 | Cc1noc(C)c1C(=O)Nc1cnc(-c2cccc(C(F)(F)F)c2)c(-c2cccnc2)n1 [CBK036727] | 66.1272
55 | N#CCC(=O)Nc1ccc(C(=O)N2CCN(c3ccccc3)CC2)cc1 [CBK306060] | 54.2529
56 | Cc1cc2c(o1)CCc1sc(N(C)C(=O)C3CC(=O)N(C)C3)nc1-2 (centres unmarked) [CBK283980] | 75.9855
57 | Cc1cccc(-c2ncc(NC(=O)CCc3cccc(Cl)c3)nc2-c2cccnc2)c1 [CBK037201] | 75.9425
58 | C[C@@H](Nc1cncc(-c2ccc(F)cc2F)n1)c1ccccc1 [CBK065676] | 69.887
59 | O=C(c1coc2ccc(O)c(CN3CCCCC3)c12)C1CC1 [CBK263206C] | 101.767
60 | COc1ccc(OC)c(CN(C(=O)c2oc3ccc(F)cc3c2C)c2cnn(C)c2)c1 [CBK298278] | 89.8197
61 | O=[N+]([O-])c1ccc(CN(CCc2ccccc2)Cc2ccccc2)cc1 [CBK261866] | 98.9547
62 | CC(NC(=O)c1cn(-c2ccccc2)nc1-c1cccnc1)c1ccccn1 (centres unmarked) [CBK295660] | 112.945
63 | COc1ccc(C(=O)Nc2cc(C)c3c(=O)oc4ccccc4c3n2)cc1 [CBK287435] | 80.5924
64 | O=C(O)C1CC=CCC1C(=O)c1c[nH]c2ccccc12 (centres unmarked) [CBK286603] | 91.2506
65 | N#Cc1ccccc1COC(=O)c1cc(-c2ccc(/C=C/c3[nH]c(=O)[nH]c(=O)c3[N+](=O)[O-])o2)ccc1Cl [CBK268888] | 77.3761
66 | Cc1ccc(C(=O)CC(C(=O)O)c2cn(CCC#N)c3ccccc23)cc1 (centres unmarked) [CBK287194] | 93.8796
67 | Cc1nn(Cc2ccccc2)c(C)c1NC(=O)CSc1nc2c(c(C(F)(F)F)n1)CCc1ccccc1-2 [CBK266112] | 0
68 | O=C(CSCc1ccccc1Cl)Nc1ccc(-c2nnc(-c3ccccc3)o2)cc1 [CBK268656] | 107.061
69 | COCCN1C(=O)C2(CC(=O)N(CCCCC(C)C)C2=O)c2cc(OC)ccc21 (centres unmarked) [CBK075145] | 92.877
70 | O=C(c1cccc(F)c1)N1CCC(c2nnc3n2CCCCC3)CC1 [CBK284627] | 97.213
71 | COC(=O)c1sccc1N1C(=O)CSCC1=O [CBK021934] | 69.593
72 | Cc1ccc(C(=O)CCC(=O)CCC(=O)O)cc1 [CBK265546] | 105.384
73 | COc1ccc(C(=O)NC(Nc2ccccc2)C(Cl)(Cl)Cl)cc1OC (centres unmarked) [CBK263680] | 78.5328
74 | CCC(C(=O)N1CCC(O)(c2ccccn2)CC1)c1ccccc1 (centres unmarked) [CBK283768] | 97.4389
75 | O=C(NC[C@H]1C[C@@H]2CC[N@]1C[C@@H]2CN1CCN(c2ccccn2)CC1)Nc1ccsc1 [CBK289113] | 60.0564
76 | O=C(CSc1nnc(-c2ccccc2F)n1-c1ccccc1)Nc1ccc2cn[nH]c2c1 [CBK267591] | 92.0497
77 | O=C(COc1ccc(F)cc1)Nc1ccc2ncccc2c1 [CBK159816] | 119.973
